According to article PMC2808332:
Results are given in words; binding and its absence hold for the method and conditions named. Some results given as binding are weak or reduced against the parent protein; the word gives no strength.

Protein sequences, listed by entry. Tags and fused reporters are not part of them.
UniProt P52333: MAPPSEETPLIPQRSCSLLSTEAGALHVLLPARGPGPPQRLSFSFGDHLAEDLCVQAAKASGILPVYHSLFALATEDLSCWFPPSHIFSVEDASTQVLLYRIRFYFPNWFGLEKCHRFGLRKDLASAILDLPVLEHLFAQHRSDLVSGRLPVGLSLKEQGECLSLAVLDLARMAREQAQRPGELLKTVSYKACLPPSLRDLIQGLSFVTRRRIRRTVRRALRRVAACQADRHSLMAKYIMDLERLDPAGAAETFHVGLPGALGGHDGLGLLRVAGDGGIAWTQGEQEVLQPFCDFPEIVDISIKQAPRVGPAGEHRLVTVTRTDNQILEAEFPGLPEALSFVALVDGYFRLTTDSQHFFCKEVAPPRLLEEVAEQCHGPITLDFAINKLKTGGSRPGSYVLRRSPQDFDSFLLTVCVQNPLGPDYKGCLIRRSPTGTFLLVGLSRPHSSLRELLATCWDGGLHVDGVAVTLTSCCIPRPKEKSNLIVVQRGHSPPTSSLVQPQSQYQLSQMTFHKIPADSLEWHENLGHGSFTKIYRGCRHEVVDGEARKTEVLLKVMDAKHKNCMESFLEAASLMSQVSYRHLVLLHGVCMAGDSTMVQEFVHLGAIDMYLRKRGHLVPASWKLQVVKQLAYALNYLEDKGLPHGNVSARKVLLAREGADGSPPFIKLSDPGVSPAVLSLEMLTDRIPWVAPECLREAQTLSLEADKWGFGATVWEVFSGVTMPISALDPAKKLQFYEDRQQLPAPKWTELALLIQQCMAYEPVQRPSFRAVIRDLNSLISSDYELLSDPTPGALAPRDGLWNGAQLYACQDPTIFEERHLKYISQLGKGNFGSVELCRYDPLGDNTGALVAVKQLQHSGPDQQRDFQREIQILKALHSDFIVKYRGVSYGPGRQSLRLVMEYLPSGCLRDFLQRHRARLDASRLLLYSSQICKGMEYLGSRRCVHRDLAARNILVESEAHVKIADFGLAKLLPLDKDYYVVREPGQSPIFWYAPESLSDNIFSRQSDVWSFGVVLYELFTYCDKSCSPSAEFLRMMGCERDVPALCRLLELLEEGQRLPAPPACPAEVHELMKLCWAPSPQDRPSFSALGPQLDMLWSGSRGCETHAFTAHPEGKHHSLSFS
UniProt P33993: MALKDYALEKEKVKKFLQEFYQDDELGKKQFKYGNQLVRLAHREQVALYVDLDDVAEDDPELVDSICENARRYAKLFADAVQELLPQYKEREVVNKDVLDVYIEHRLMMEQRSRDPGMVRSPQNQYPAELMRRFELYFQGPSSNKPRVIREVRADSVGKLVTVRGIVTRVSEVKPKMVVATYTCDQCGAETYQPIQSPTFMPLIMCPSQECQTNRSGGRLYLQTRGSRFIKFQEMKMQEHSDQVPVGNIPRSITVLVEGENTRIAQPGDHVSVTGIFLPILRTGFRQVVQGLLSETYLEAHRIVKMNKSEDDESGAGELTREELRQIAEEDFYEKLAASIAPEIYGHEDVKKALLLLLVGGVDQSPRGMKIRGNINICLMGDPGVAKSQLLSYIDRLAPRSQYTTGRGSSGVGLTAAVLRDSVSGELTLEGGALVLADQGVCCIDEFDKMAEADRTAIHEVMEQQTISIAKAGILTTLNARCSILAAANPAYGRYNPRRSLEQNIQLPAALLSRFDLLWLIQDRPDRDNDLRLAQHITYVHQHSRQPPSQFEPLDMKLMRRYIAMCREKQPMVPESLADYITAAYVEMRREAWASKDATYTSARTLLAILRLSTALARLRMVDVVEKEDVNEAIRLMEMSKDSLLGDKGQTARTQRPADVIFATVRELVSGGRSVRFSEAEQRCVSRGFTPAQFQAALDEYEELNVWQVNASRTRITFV
UniProt Q9BYM8: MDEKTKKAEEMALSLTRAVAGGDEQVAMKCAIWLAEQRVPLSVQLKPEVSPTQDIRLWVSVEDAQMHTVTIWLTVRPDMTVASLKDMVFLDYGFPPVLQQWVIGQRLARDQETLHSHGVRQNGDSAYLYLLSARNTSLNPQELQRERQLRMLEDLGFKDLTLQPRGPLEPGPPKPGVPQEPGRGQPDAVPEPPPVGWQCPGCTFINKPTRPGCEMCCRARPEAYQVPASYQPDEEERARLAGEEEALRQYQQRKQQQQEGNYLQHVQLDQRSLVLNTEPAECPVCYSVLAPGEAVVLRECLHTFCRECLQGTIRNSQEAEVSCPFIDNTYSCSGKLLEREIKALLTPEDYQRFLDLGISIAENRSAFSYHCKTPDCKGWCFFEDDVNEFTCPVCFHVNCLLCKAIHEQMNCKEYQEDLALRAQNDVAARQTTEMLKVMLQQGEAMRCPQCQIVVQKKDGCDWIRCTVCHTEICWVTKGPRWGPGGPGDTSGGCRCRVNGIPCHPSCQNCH

Assays:
Experiment in all cases: peptide or protein array; Invitrogen Protoarray v4.0, about 8,400 human proteins spotted on nitrocellulose-coated glass slides; 10 µg biotinylated tag-free NEMO in 120 µl probing buffer (PBS, 0.5 mM DTT, 5 mM MgCl2, 5% glycerol, 0.05% Triton X-100), 4°C, 1.5 h; bound NEMO detected with labelled streptavidin; hits Z-score > 3, hits of the biotin-GST control array subtracted; both purified
[1] = biological target: T1, FERM domain containing 8 (human) (UniProt Q9BZ67)
T1 sequence: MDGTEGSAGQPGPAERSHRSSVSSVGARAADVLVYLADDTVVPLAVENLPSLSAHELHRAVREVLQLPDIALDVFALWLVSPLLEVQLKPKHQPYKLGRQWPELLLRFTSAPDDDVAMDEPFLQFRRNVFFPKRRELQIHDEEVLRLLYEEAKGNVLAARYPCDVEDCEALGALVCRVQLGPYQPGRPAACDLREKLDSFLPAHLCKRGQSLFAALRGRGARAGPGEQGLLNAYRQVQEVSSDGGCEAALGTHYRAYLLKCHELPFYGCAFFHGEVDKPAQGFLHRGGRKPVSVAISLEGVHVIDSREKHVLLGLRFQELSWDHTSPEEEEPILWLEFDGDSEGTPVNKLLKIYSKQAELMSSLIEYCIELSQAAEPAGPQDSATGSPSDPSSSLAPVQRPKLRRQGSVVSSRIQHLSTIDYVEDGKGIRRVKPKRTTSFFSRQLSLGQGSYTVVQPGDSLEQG

Janus kinase 3 (human) = Janus kinase 3 (human) (UniProt P52333)
[2] = biological target: MCM7 minichromosome maintenance deficient 7 (human) (UniProt P33993)
[3] = biological target: RanBP-type and C3HC4-type zinc finger containing 1 (human) (UniProt Q9BYM8)
[4] = biological target: T2, Sodium channel and clathrin linker 1 (human) (UniProt Q96NL6)
T2 sequence: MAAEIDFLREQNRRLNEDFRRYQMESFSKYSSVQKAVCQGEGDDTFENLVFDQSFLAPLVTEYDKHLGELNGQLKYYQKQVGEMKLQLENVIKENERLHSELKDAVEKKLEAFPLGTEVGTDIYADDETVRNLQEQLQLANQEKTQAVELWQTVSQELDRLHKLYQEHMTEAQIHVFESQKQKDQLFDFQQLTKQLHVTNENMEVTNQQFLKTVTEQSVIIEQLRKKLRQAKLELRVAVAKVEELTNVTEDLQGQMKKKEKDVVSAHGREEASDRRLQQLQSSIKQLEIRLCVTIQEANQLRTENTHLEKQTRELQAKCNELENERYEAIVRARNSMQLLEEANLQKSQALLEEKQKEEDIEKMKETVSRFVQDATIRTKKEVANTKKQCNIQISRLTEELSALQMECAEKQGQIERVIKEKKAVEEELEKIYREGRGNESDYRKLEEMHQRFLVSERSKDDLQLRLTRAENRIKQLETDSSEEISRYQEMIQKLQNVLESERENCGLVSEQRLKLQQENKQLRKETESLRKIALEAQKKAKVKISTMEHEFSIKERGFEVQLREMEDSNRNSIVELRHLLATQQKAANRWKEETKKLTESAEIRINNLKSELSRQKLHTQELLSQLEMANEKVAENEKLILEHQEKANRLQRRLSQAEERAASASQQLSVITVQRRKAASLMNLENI

[5] = biological target: T3, Tripartite motif-containing 41 (human) (UniProt Q8WV44)
T3 sequence: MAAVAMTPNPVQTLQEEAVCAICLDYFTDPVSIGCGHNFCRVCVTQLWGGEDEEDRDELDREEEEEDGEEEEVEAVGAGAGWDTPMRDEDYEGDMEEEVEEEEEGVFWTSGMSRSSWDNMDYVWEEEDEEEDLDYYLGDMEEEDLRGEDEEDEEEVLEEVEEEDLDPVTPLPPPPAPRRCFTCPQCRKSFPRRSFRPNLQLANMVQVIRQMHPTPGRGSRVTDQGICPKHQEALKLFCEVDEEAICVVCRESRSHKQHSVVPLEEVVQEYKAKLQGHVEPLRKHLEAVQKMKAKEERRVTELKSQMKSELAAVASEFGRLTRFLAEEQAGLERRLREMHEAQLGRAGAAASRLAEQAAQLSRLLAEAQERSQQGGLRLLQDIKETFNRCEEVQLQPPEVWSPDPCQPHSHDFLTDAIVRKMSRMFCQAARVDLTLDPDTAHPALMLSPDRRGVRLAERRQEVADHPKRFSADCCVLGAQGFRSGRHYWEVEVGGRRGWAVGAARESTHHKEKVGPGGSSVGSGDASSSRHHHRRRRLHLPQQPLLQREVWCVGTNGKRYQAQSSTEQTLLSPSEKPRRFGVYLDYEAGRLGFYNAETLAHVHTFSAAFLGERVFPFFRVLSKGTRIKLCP

Measured: binding

NEMO (NF-κB essential modulator), tag-free, biotinylated (from UniProt Q9Y6K9 1-419)
binds: all assays above
